Measurements taken from the supplement of paper PMC11417369.
The other results are listed elsewhere or left out.

tested on: PF3D7_0420300 AP2 domain 1 (GST-tagged); assay: gcPBM binding intensity (ln(normalized median fluorescence intensity)); higher = stronger DNA binding
In short: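 An Agilent 4 × 180k array of primer-extended double-stranded 36-bp intergenic genomic probes, with negative controls, was incubated for 1 h with GST-tagged P. falciparum DNA-binding domains expressed in E. coli. Alexa488 anti-GST antibody detected bound protein, scanned at 488 nm. Binding intensity is the highest Masliner-normalised natural-log median intensity across replicate spots of either probe orientation.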

| Sequence | gcPBM binding intensity (ln) |
| --- | --- |
| ATATATATATGTGTGTGTACATATGATTTCGCACTT [XGTACX_site4449] | 9.8 |
| TATACAGATAAATACACACACATATATATATATATA [CACACA_site4178] | 9.52 |
| GTTATAATTTAGTCAAGTACATGCGTATGTATATTC [XGTACX_site3763] | 9.23 |
| CACAGAAATATTCTTATACACACTGTTCTTATATTC [CACACA_site288] | 9.45 |
| TAATATATATTATATACACACATATATATATATATA [CACACA_site428] | 9.38 |
| TTTTACGTGAGTAATACACACATATAAGTTTATATA [CACACA_site4120] | 9.09 |
| TATAACTTTTTTAATACACACAAATATTTATTTATA [CACACA_site7425] | 9.22 |
| GGCATACACGAACACACACACACACGCACATATATA [CACACA_site6426] | 10.3 |
| TTACATGTAAAAGGTACACACATTAGATATACAAAT [CACACA_site6651] | 9.71 |
| AATACTCAAAAGAATCGTACAAACAACACTCCCACG [XGTACX_site7564] | 9.4 |
| TATCATACCTTTTAATGTACACACATTTCTTTTTTG [XGTACX_site1655] | 9.75 |
| TATAAATTAAAATCAGTGCATATTTTGAAAAACCTC | 9.27 |
| TGAAATAACCCATGTGCATGCACTTCAATAACTGAA [TGCATGCA_site1041] | 9.26 |
| ATATTATTATTAGTTTCACACATTTAATGAAACTAA [CACACA_site5677] | 9.03 |
| TATAAATTATAAATTGCACACATATTTTTATATTTA [CACACA_site8974] | 9.32 |
| ATTACCATATAAAACACACAAACATACATACATACA [CACACA_site3729] | 9.64 |
| TATATATATATATATTGTACATATTAATATTAGAAA [XGTACX_site8923] | 9.1 |
| TGGAGGTCAGTTCACAGTACCCAGAAACTCTACGAG [XGTACX_site2007] | 8.76 |
| AATGACATTCTTACACGTACAAAATAAAAAATAAAA [XGTACX_site6932] | 9.2 |
| TATATATTATATTCATGTACGTAAAAATTTTGAATA [XGTACX_site6734] | 9.09 |
| ATTTATTTTATAATATATAAATGATATATCTTATTA [CACACA_negctrl_site66] | 8.99 |
| CCATATGATATATATTGTACATTATATATTATTTCT [XGTACX_site1697] | 9.37 |

| Sequence | gcPBM binding intensity (ln) |
| --- | --- |
| TATGTTGTTTATTTAGTGCATATTTAAATATTATAA [GTGCAC_site9601] | 9.33 |
| TAATATATAAAAAGATGTACTTTTGCAAGTTCCTTT [XGTACX_site8519] | 9 |
| GGACTTTATAAAAATGGTACACGCAATTCTATAATC [XGTACX_site6515] | 9.18 |
| ATATATATATATGTATGTACGTATGTATGTATGAAT [XGTACX_site4857] | 9.55 |
| GGTACATACAAACACACACACAAAAAAAAAAAAATA [CACACA_site1577] | 9.91 |
| TATTGTATAAAAATAACATGCAATCCTTATACTGCT [TGCATGCA_site345] | 9.16 |
| TGTACAGTAAATACAACACACATTTGTATAAATATA [CACACA_site4705] | 9.59 |
| TCTAATTTAAAATACACACACATATCTATAATATAT [CACACA_site7029] | 9.72 |
| GTATAAAAATTTAGGAGTACAATATATTTATAATAT [XGTACX_site2127] | 9.27 |
| GTAATAAAAAATTAATGTACTTTATATAATATATTA [XGTACX_site5935] | 9 |
| TTTTTGTATTCTCCGGACTACATTATGTTGTAAATG [CACACA_negctrl_site691] | 9.3 |
| TTTTCTTTCTTGTTTCGTATATTATAAAAAAAAAAG [CACACA_negctrl_site854] | 8.96 |
| TATTTGGGTATTTTTACACACATTAAAATATATATA [CACACA_site5800] | 9.33 |
| GTATTTTGCATAAATGCATGTAAATATATACCTACC [TGCATGCA_site957] | 9.1 |
| ATAATTCCATAAAATAGACACACGAATGTATAATAT [CACACA_site477] | 9.6 |
| ACATATGAATATAATACACACTTGTATTCTTAATAT [CACACA_site5085] | 9.45 |
| CAGTTGTTAATTTGTGTGCACCAAATATTATACATA | 9.4 |
| TATTTGTAAAGACATGCATGGTACTTTTAAAACATA [TGCATGCA_site7] | 8.98 |
| TGTAGATAAAATAAACGTACGTATTGATTTTTTTCA [XGTACX_site1610] | 8.97 |
| TGGTAATACCCATACACACACACATACACATATATA [CACACA_site8877] | 10.1 |
| TTAATATTTGTTCTGATCCTTTTATTCAACTTTTTT [CACACA_negctrl_site536] | 9.35 |
| TATTTATAACATTGTACACACAAAGAAATAATATTA [CACACA_site7422] | 9.56 |

| Sequence | gcPBM binding intensity (ln) |
| --- | --- |
| ACGTATGTATATTACACACATACATATTATTCACTA [CACACA_site204] | 9.54 |
| ATAATATTTTATATAGTGCATTTGCTCATTATATAT [GTGCAC_site9528] | 9.25 |
| CATATATAACATATAACACACATACTTAGTATTACA [CACACA_site5674] | 9.63 |
| ATGATAAACATGGATACACACATATATATTACATAT [CACACA_site1576] | 9.68 |
| ACATATATATACTATCGATTAATAAATTTGTTTTTT [CACACA_negctrl_site881] | 9.36 |
| TGAGTATATATAAATACACACCAAATGTTAATATAT [CACACA_site5022] | 9.43 |
| AGGTTAATCGAAATTGCATGTGACGAAAAATCAAAA [TGCATGCA_site666] | 9.12 |
| CCCTTAAAATATAAATGTACAAAATTATTTGTATGT [XGTACX_site6164] | 9.09 |
| GATTATATATACAAAAGTACATTATAAAAATTTCAT [XGTACX_site4223] | 9.07 |
| AGAAAAGAGAGAAAAACATGCACATGATATTATAAA [TGCATGCA_site120] | 9.19 |
| GTGAATATTAAAAAATGTACACAATTATATGTATAT [XGTACX_site4834] | 9.24 |
| TTCTTTTAATTACGAGTGCATACCATATGACATTAT [GTGCAC_site9819] | 9.19 |
| ATAAACATCTAGTGCTGTACACAATTTGATTTTTTT [XGTACX_site3110] | 9.17 |
| CAAATACATGGACACACACACATATACAGATATATA [CACACA_site5854] | 10 |
| TTTTTTTTTTTTTTCTGTACTTAAAAAGGGGGAGAA [XGTACX_site3799] | 9.4 |
| CAAACATGTTCAAATTGTACAATAGAAAATATATAT [XGTACX_site1557] | 9.32 |
| TTGAAGTTTGATTGTAGTACGAATTGGTAGTTTTTT [XGTACX_site6854] | 9.4 |
| GGAAGAATATATAGGACACACATACAATAATAAATA [CACACA_site6124] | 9.75 |
| TTTTTTTTTTTTTTTTTTTTTTGTGAAACTAAGTAA [CACACA_negctrl_site273] | 8.31 |
| TTTTTTTTTTTTTTTTTGCAATATATTTTAAAAAAG [CACACA_negctrl_site25] | 8.15 |
| AACTTCTTTTTTATAACACACAAAATATAAATACAA [CACACA_site4313] | 9.46 |
| TTTTATATCTAGTTTATATTTCTTAAATAAATAAAT [GTGCAC_negctrl_site245] | 8.9 |

| Sequence | gcPBM binding intensity (ln) |
| --- | --- |
| CAAATTAAATATTATGCATGTACCAAACATCCTACC [TGCATGCA_site35] | 9.33 |
| AACATATAAATGATATGTACACACATTTATATATAT [XGTACX_site7364] | 9.49 |
| TAATACAAAAAGAAAAGTACATGTTAATTATTATTT [XGTACX_site2196] | 9.23 |
| TTTAATATGTATTTTTTTTTTTTTTTTTTTTTTTTT [XGTACX_negctrl_site440] | 9 |
| TATAACAGGAATTATATATATATATATATATATTAT [CACACA_negctrl_site911] | 9.07 |
| CTTTTTTTAGTTAGGTGTACAATTTGTTATTATTAG [XGTACX_site1507] | 9.43 |
| TTTTTTTTTTTTTTTTGTACATATTTCTTATAAGTG [XGTACX_site6459] | 8.77 |
| AAAAGAGAAACATTTACACACAAATATAGATATATG [CACACA_site1027] | 9.73 |
| TTTTATGGAAAGTGTTGTACATATTTTTGTATATGT [XGTACX_site7356] | 9.15 |
| TTGTATAATTTAACAAGTACAAAATAAATTTGTATA [XGTACX_site5505] | 8.93 |
| TTCAATTAAAAAATATGTACGCATAAATTGATATAT [XGTACX_site4289] | 9.18 |
| ATAGTATACGGACACACACACACACCGATATATATA [CACACA_site5032] | 10.3 |
| TATCTTATATTTACACGTACGTAGAATTTATAAGTT [XGTACX_site3460] | 9.14 |
| TTTTATTAATATTATTTATCTTCTCAAAAGATATAT [XGTACX_negctrl_site202] | 8.82 |
| CACACGTATAAATATACACACTAAAATACACGCACA [CACACA_site7876] | 9.73 |
| AGCACAGACTAATAAACACACACATATATATATATA [CACACA_site8021] | 9.64 |
| ATATATATATATATATGTACATATTTATTTATTTAT [XGTACX_site5161] | 9.15 |
| CTCATTCTTTTTTGATGTACTTTTTTTTTTTAAGTT [XGTACX_site2875] | 9.3 |
| AATATATAAATCTATTGTACATAAAGAGGATAATAA [XGTACX_site1022] | 9.31 |
| GATGATTATATATATACGCACACTTTTTTTTTTTTT [CACACA_site2652] | 9.65 |
| ATCACAAAATGGAATGTTCTATGATATATATGTATA [XGTACX_negctrl_site460] | 9.21 |
| TGTAAATATTTATTCACACATAATCAATTAGAAAAA [CACACA_site5944] | 9.12 |
